The campaign covered roughly 48,000 compounds. About 120 (0.25%) were called active. Inconclusive results (about 4%) are left out. Calls come from the whole dose curve; as a rule, active = well fitted activation curve with a large enough effect; inconclusive = small, poorly fitted or top-dose-only effect, or another doubt; inactive = no such curve, though single readings can be large or run the other way. The list shows a part of the results.
Assay: Primary qHTS for Identification of Small Molecule Activators of Huntingtin-Antisense Promoter Activity; note: nearly all actives have a fitted effect of over 55% in size
Details: HEK293 HTT-AS promoter firefly luciferase reporter, 24 h; series mostly up to 57.5 µM; activity change, positive = activation: at the top concentration
In short: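 HEK293 cells carrying firefly luciferase reporters were seeded at 2,500 per well in Opti-MEM and cultured for 24 h. They were then treated with compounds at up to 57.5 uM final for 24 h at 37 degrees C before Dual-Glo luminescence readout.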

Activity change, positive = activation, inactive:
CCOc1ccc(N2CC(C(=O)NCc3nnnn3-c3ccc(C)c(C)c3)CC2=O)cc1 (stereo not drawn) -13.9%
CCSc1ncc(Cl)c(C(=O)Nc2sc3c(c2C(=O)NC)CCCC3)n1 0.535%
CCc1cccc(NC(=O)CN(C)S(=O)(=O)c2cccc3cccnc23)c1 -22.3%
Nc1ccc(C(=O)O)c(O)c1 0.694%
CC1CCc2c(sc(NC(=O)c3cc4nc(-c5ccc(Cl)cc5)cc(C(F)(F)F)n4n3)c2C#N)C1 (stereo not drawn) 4.92% [at 11.5 µM, percent change from vehicle, -100% = no light]
CC(Sc1oc(-c2cccs2)nc1S(=O)(=O)c1ccccc1)c1ccccc1 (stereo not drawn) -12%
Cn1nccc1C(=O)NCc1ccc2c(c1)CCN2C(=O)c1ccc(Cl)cc1 -10.2%
Cc1c(C(=O)Nc2ccc(F)cc2F)sc2nc3n(c(=O)c12)N=C(c1ccccc1)CS3 12.1%
COc1ccc(C(CNC(=O)COc2cc(C)cc(C)c2)N2CCOCC2)cc1 (stereo not drawn) -14.4%
O=C1c2ccccc2-c2onc3c(NCCO)cc(NC4CCCCC4)c1c23 -31.2%
CCCCOc1ccc(Cn2c(=O)sc3ccccc32)cc1 -23.2%
COc1ccc(N2CCN(c3csc4ccccc4c3=O)CC2)cc1 17.4%
CCc1ccc(NC(=O)c2nn(-c3ccc(OC)cc3)c(=O)c3c2c2ccccc2n3C)cc1 -8.86%
CCc1ccc(Oc2c(C(F)(F)F)oc3c(CN4CCCC(C)C4)c(O)ccc3c2=O)cc1 (stereo not drawn) -11%
CC(CNC(=O)CCS(=O)(=O)c1cc2c(cc1Cl)NC(=O)CO2)c1ccccc1 (stereo not drawn) -3.24%
CCOC(=O)c1ccccc1NC(=O)CCc1nc(-c2ccc(C)cc2)no1 -1.86%
CCc1ccccc1NC(=O)C1CCCN(c2cnccn2)C1 (stereo not drawn) 9.02%
C=C(C)C(=O)OCC(O)CO (stereo not drawn) -8.79%
CCOc1nc2cccc(C(=O)O)c2n1Cc1ccc(-c2ccccc2-c2nn[nH]n2)cc1 -3.19%
NC(=O)NN=Cc1ccc([N+](=O)[O-])o1 2.6%
Cc1ccc(NC(=O)CSc2nc(=O)cc(N)n2CCc2ccccc2)cc1 -8.26%
O=C(Nc1cccc(NC(=O)c2ccccc2Cl)c1)c1cccc(Br)c1 -17%
CCC(CC)[C@H](NC(C)=O)[C@@H]1[C@H](O)[C@@H](C(=O)O)C[C@@H]1N=C(N)N -14.9%
CSc1ncc(C(=O)N2CCN(c3cccc(C(F)(F)F)c3)CC2)c(C)n1 -26.8%
O=C(c1ccccc1)c1ccccc1 1.01%
COc1ccccc1OCC(=O)Nc1c(C(=O)c2ccc(F)cc2)oc2ccccc12 -17%
Cc1ccc2c(c1)N(CCCC(=O)NCc1cccc(F)c1)C(=O)CO2 -5.47%
Cc1ncc(CO)c(CN)c1O -5.82%
COc1ccc(NC(=O)C(NC(=O)/C=C\c2ccc3c(c2)OCO3)c2ccccc2)cc1 (stereo not drawn) -13.1%
Cc1ccc(NC(=O)C2CCN(S(=O)(=O)c3cc(-c4noc(C)n4)ccc3C)CC2)c(C)c1 -69.3%
CCCN(CCC)CCCNC(=O)c1cc2c(=O)[nH]c3ccccc3c2n1C -6.68%
COc1cccc(-n2c(=O)c3sc4ccccc4c3n(CC(=O)Nc3ccccc3C)c2=O)c1 -17.6%
O=C(CSc1c2c(nc3cc(Cl)ccc13)CCCC2)NCc1ccccc1Cl -62.9%
COc1ccc(C2CC(=O)c3cc(-c4nc(-c5cccc([N+](=O)[O-])c5)cs4)c(=O)n(-c4ccc(OC)cc4)c3C2)cc1 (stereo not drawn) -3.97%
COc1ccc(C2N3CC4(C)CN2CC(c2ccccc2)(C3)C4=O)cc1OC (stereo not drawn) 11%
CCOc1ccc(OCC)c(NC(=O)C2CCN(c3cnccn3)CC2)c1 -12%
N#Cc1cccc(NC(=O)c2ccc3c(c2)N(Cc2cccc(Cl)c2)C(=O)c2ccccc2S3(=O)=O)c1 -29.3%
O=C(Nc1nnc(S(=O)(=O)N2CCOCC2)s1)c1ccc(F)cc1 2.84%
O=C(c1ccc(F)cc1F)N1CCC(c2noc(-c3ccc(S(=O)(=O)N4CCCC4)cc3)n2)CC1 -2.45%
Cc1ccccc1-c1noc(-c2ccccc2OCC(=O)Nc2ccccc2[N+](=O)[O-])n1 -13.5%
CCc1ccc(S(=O)(=O)c2nnn3c2nc(NCc2ccccc2OC)c2cc(Cl)ccc23)cc1 16.2%
O=C(C=Cc1c(C(=O)O)[nH]c2cc(Cl)cc(Cl)c12)Nc1ccccc1 -15.3%
CCc1ccc(NC(=O)CN(Cc2ccccc2)S(=O)(=O)c2ccc3nc(C)sc3c2)cc1 -22.9%
Cn1c(=O)oc2cc(S(=O)(=O)Nc3ccc(O)cc3)ccc21 -7.62%
COc1ccc(C2NC(=O)N(C)C3=C2C(=O)N(c2ccc(C)cc2)C3)cc1 (stereo not drawn) -18.5%
O=C(CCn1cnc2onc(-c3ccc(F)cc3)c2c1=O)N1CCN(c2cccc(Cl)c2)CC1 -27.4%
O=C(Nc1ccccc1C(F)(F)F)N1CCN(c2ccc3nnc(-c4ccc(F)cc4)n3n2)CC1 -34.7%
CCOc1ccc(CNC(=O)C2Cc3cc(S(=O)(=O)N4CCCCCC4)ccc3N2C(C)=O)cc1 (stereo not drawn) -12.6%
CCC(C(=O)NCCCN(CC)CC)n1ncn2c(cc3occc32)c1=O (stereo not drawn) -6.64%
Cc1ccc(NC(=O)Cn2c(-c3nonc3N)nc3ccccc32)cc1Cl -11.1%
CCc1ccc(NC(=O)C(=O)NCC(c2cccnc2)N2CCOCC2)cc1 (stereo not drawn) -20%
O=C(c1ccc(F)cc1)C1CCN(CCn2c(=S)[nH]c3ccccc3c2=O)CC1 -15.1%
CCc1ccc(NC(=O)c2cc3c(=O)n(Cc4cccnc4)ccc3nc2C)cc1 -22.1%
O=C(O)Cn1nnc(-c2cc(N3CCC(Oc4cc(F)ccc4Br)CC3)no2)n1 -34.1%
Cc1cccc(C(=O)Nc2cccc(OCc3cc(=O)n4c(C)csc4n3)c2)c1 -16.5%
CC(C)c1nn2c(=O)cc(COC(=O)CNC(=O)c3ccccc3)nc2s1 4.41%
OCCc1ccccc1 -1.94%
COc1ccc(NC(=O)Cc2csc(COc3cccc(C)c3)n2)c(OC)c1 -12.3%
COc1ccc(-c2noc(CCC(=O)NCc3ccc(OC)cc3OC)n2)cc1 -25.9%
CCCN(CCC)CC(O)Cn1cc(/C=C/C(=O)c2ccc(OCC)cc2)c2ccccc21 (stereo not drawn) -40.2%
O=C(O)c1ccccc1Nc1cccc(C(F)(F)F)c1 -9.46%
COc1ccc(OCC(=O)NCCS(=O)(=O)N2CCN(c3cccc(Cl)c3)CC2)cc1 -21.8%
CCn1cc(C(=O)N(C)Cc2ccccc2)c(=O)c2cc(S(=O)(=O)N3CCCCCC3)ccc21 -12.3%
Cc1ccc2oc(=O)n(CCNC(=O)Nc3ccc(C)c(F)c3)c2c1 -3.14%
c1ccc(-c2nn3c(c2-c2ccnc4cc(OCCN5CCOCC5)ccc24)CCC3)nc1 -23.3%
Cc1ccccc1CSc1nc2cccnc2n1Cc1ccc(C(=O)NCCc2cccs2)cc1 9.86%
COc1ccc(Cl)cc1N(C)C(=O)C(=O)Nc1ccc2nc3n(c(=O)c2c1)CCCCC3 -10.9%
Cc1ccc(CN(C(=O)COc2ccc(Br)cc2)c2ccccn2)o1 -40.9%
Cc1ccc(N2CCN(C(=O)c3noc4c3COc3ccc(C)cc3-4)CC2)c(C)c1 -19.8%
COc1ccc(NC(=O)CSc2nc(-c3ccccc3)nc3c2Cc2c(CO)cnc(C)c2O3)cc1Cl -13.5%
Cc1ccc(C)c(N2CCN(C(=O)C(C)n3c(C)c4cnn(-c5ccccc5)c(=O)c4c3C)CC2)c1 (stereo not drawn) -5.27%
Cc1ccc(CNC(=O)c2c(-c3cccc(Br)c3)noc2C)o1 -18.5%
CC(Nc1ccc(-c2nc(-c3ccccn3)no2)cc1[N+](=O)[O-])c1ccccc1 (stereo not drawn) 14.3%
COC(=O)c1ccc(OCC2c3cc(OC)c(OC)cc3CCN2C(=O)c2ccccc2F)cc1 (stereo not drawn) -21%
Cc1ccc(C)c(Cn2nc(C)n3c(cc4cc(C)ccc43)c2=O)c1 -7.23%
CCCCCn1c(=N)n(CC(O)COc2cccc(C)c2)c2ccccc21 (stereo not drawn) -33.2%
O=C(CSCc1cnn(-c2ccccc2)c1-n1cccc1)Nc1ccc(F)cc1F -24.3%
CCCCOc1ccc(C2=NC(c3ccccc3)=Nc3ccc(OC)cc3N2)cc1 13.9%
Cn1c(=O)c2c(-c3ccccc3Br)n(CCc3ccccc3)cc2n(C)c1=O -28.1%
O=C1O[C@H]([C@@H](O)CO)C(O)=C1O -5.75%
Clc1ccccc1Cc1cn2cc(-c3ccccc3)nc2s1 -8.5%
CCc1ccc(NC(=O)CSc2nnc(-c3cc4occc4n3C)n2-c2ccccc2C)cc1 -17.5%
C=CCc1c(C)nc2nc(SCC(=O)Nc3ccc(OCC)cc3)nn2c1C 2.47%
Cc1cc(C)cc(NC(=O)C2(c3cccs3)CCOCC2)c1 -13.6%
COc1ccccc1CNC(=O)Cn1nc(C)c2nn(-c3ccc(Cl)cc3)c(C)c2c1=O -43.1%
CC(C)c1ccc(Nc2ncnc3c2c(-c2ccccc2)cn3-c2ccccc2)cc1 2.93%
CC(C)COc1ccccc1C1CC(=O)Nc2cc3c(cc21)OCO3 (stereo not drawn) -47.3%
COc1ccccc1NC(=O)CSc1nnc2c3ccccc3n(C)c2n1 6.33%
Clc1cccc(-n2ncc3c(N4CCN(Cc5ccccc5)CC4)ncnc32)c1 -2.58%
COc1cccc(CNC(=O)Cn2ccc3cc(S(=O)(=O)N4CCC(C)CC4)ccc32)c1 -28.3%
Cc1cc(C)cc(OCC(=O)N(Cc2ccc(C)o2)C2CCS(=O)(=O)C2)c1 (stereo not drawn) -18.9%
Cc1ccc(-c2nn3c(=O)cc(CN4CCN(C(=O)Nc5cc(Cl)ccc5C)CC4)nc3s2)cc1 -6.62%
CCC(CC)C(=O)Nc1ccc2nc(SCC(=O)N3c4ccccc4CC3C)sc2c1 (stereo not drawn) -28.4%
CC(C)Oc1ccc(CNC(=O)c2ccc3nc(Cc4ccccc4)oc3c2)cc1 -16.7%
CCOC(=O)c1c(C)sc(-c2c(-c3ccc(OC)c(F)c3)[nH]c3c2c(=O)[nH]c(=O)n3C)c1O -28.4%
Clc1ccc(C(c2ccccc2Cl)C(Cl)Cl)cc1 (stereo not drawn)
COc1ccc(Cl)cc1NC(=O)c1c(NCc2ccc(C)o2)sc2c1CCCC2 -7.07%
COCCNC(=O)c1cc2c(Cl)nc3ccc(C)cc3c2s1 -2.02%
